Read-outs that look alike come from different tables or passages of the source.
Test system: Botrytis cinerea
Assay type: in vivo
[1] = Table 2-5, treatment concentration 50 ppm

In the case of Metiram [Metiram (b-67)], the Preventive value [1] is reported as 67.
`CN(C)C(=S)SSC(=S)N(C)C` [Thiuram (b-68), Thiuram] was tested, and the Preventive value [1] was 67.
With `COP(=S)(OC)Oc1c(Cl)cc(C)cc1Cl` [Tolclofos-methyl] the Preventive value (Table 2-10 (Comparative Example 1), treatment concentration 50 ppm) was 17.
For `C=CCSC(=O)n1c(N)c(-c2ccccc2C)c(=O)n1C(C)C` [Fenpyrazamine (b-99), Fenpyrazamine], the Preventive value (Table 2-3, treatment concentration 10 ppm) was 47.
`CN1OC(c2ccc(Cl)cc2)CC1(C)c1cccnc1` (centres unmarked) [Pyrisoxazole (b-103), Pyrisoxazole] was tested, and the Preventive value (Table 2-5, treatment concentration 10 ppm) was 40.

From patent US10201158B2, “Plant disease control composition and method for controlling plant disease by application of same” (MITSUI CHEMICALS AGRO, INC., priority 2014, dated 2019)
